Recombinant human monoclonal antibodies (heavy:light variable regions). ELISA EC50 on the named antigen, from 10 µg/ml down; IC50 / IC90 against spike pseudovirus on 293T-ACE2 cells, 48 h; lower = stronger. Calls: IC50 above 1,000 ng/ml = non-neutralizing; EC50 above 1,000 ng/ml = non-binder. The source prints 1000 for neutralization that was not reached; it is given as >1000 ng/ml. Only binders of the Wuhan-Hu-1 domain have neutralization values.

B1: B2003 (protein)
chain 1: EVQLLESGGGLVQPGGSLTLSCAASGFSFSNYAMTWVRQPPGKGLEWVSGIGGYGGDTYYADSVKGRFTVSRDDSKNTLYLHMNNLRAEDTALYYCAKGVRSNSDYFEYWGQGTLVTVSS
chain 2: DIQMTQSPSTLSASVRDRVSITCRASQSIGSWVAWYQQKPGKAPKLLIYDASNLESGVPSRFSGSGSGTEFTLTISSLQPDDFATYYCQHYNSYSATFGQGTKLEIK
B2: B1110 (protein)
chain 1: EVQLVESGGALQQPGRSLTLSCAASGFTFEDYAMHWVRQAPGKGLEWVSGITWTGGMIDYADSVKGRLIISRDNAKKSLYLHMRGLRPEDTALYYCARGSRSGSYHLRDHFYGMDVWGQGTTVT
chain 2: EIVLTQSPGTLSLSPGERATLSCRASQSVNSNYLAWYQQKPGQAPRLLIYGASSRATGIPDRFSGSESGTDFTLTISRLEPEDFAVYYCQQYGFSAWTFGQGTKVEIK
B3: B1070 (protein)
chain 1: QVQLQESGPGPVKPSETLSLTCTVSGASVTSHNFYWSWIRQPPGKGLEWIGFFSSRGSPNYNPSLKSRVTISVDMSKSQFSLRLSSVTAADTAVYYCARETYFYDRNGNYLSDGFDSWGQGTLVTVS
chain 2: DIQMTQSPSSLSASVGDSVTITCRASQTISTWLAWYQQKPGQAPKLLIYQASSLETGVPSRFSGSGSGTEFTLTIGSLQPDDFATYYCQQYKSSSPYTFGQGTKLEIK
B4: B1116 (protein)
chain 1: QVQLVESGGGVVQPGRSLRLSCAASGFTFNRHAIHWVRQAPGKGLEWLGVISNDGAIKSYPDSVKGRFTISRDNSRNTLYLQMNSLRTEDTAVYYCARDQEALTPIFDYWGQGTLVTVSS
chain 2: DIQMTQSPSSLSASVGDRVTITCRASQSISSYLNWYHQKPGKAPKLLIYNAASLQSGVPSRFSGSGSGTDFTLTISSLQPEDFATYYCQQSYNTPPITFGQGTRLE
B5: B1113 (protein)
chain 1: QVQLVQSGAEVKKPGSSVKVSCKASGDTFSTSAFNWVRQAPGQGLEWMGEIIPTFDTSTYAQKFQGRVTITADKSTSTVYMELSSLRSEDTAVYFCARVPGFYSGHFDSWGQGTLVTVSS
chain 2: DIQMTQSPSSLSASVGDRVTITCQASQDMSNYLNWYQQKPGKAPKLLIYDVFNLEAGVPSRFSGSRSGTDFTLTISSLQPEDIATYYCQHYDNLSSYSFGQGTKLEIK
B6: B1073 (protein)
chain 1: QVQLVQSGAEMKKPGSSVKVSCEAPGGTFTSYSINWVRQAPGQGLEWMGGIIPTLGTTNYGQKFQGRVTITADKSTSTAYMELSSLRSEDTAVYYCARGKLDFRSGFFYNFRSMDVWGKGTTVTVSS
chain 2: DIQMTQSPSSLSASVGDRVTITCQASHDISSCLNWYQQKPGKAPKLLIYDASNLETGVPSRFSGSGSGTGFTFTISSLQPEDIATYYCQQYENLPLTFGGGTKVEI
B7: B1072 (protein)
chain 1: EVQLVQSGAEVKKPGKSLMISCKASGYSFTDYWINWVRQMPGKGLEWMGRIDPSDSYTNYSPSFQGHVTISADKSINTAFLQWSSLKASDTAVYYCARGQYHLDPIGHYFFDFWGQGALVTVSS
chain 2: QSALTQPASVSGSLGQSITISCTGTSSDVGSYDLVSWYQQYPGKAPKLIIYEVIKRPSGVSNRFSGSKSGNTASLTISGLQADDEAHYYCCSYAGIITYVVFGGGTKLTVL
B8: B1075 (protein)
chain 1: EVQLVESGGGLIQPGGSLRLSCAASELIVSYNYMTWVRQAPGKGLEWVSIIYSGGSTFYADSVKGRFTISRDNSKNTLYLQMNSLRPEDTAVYYCARVLPTIWDAFDIWGQGTMVTVSS
chain 2: DIQLTQSPSFLSASIGDKVTITCRASQGISSYLAWYQQKPGKAPKLLIYAASTLQSGVPSRFSGSGSGTEFTLTIDSLQPEDFATYYCQQLNSYPVGTFGQGTRLEIK
B9: B2004 (protein)
chain 1: QVQLQESGPGLVKPSQTLSLTCTVSGGSVRSGGYYWSWIRQPPGKGLEWIGYIYYSGNTFYLPSLQSRVTISVDMSKNQFSLRLSSVTAADTAVYYCARDQHESHYGSGPSGRIDSWGQGTLVTVSS
chain 2: IRMTQSPSSLSASVGDRVTITCQASQDINNYLNWYQQKPGKAPKVLIYDASNLETGVPSRFSGSGSGTDFTFTISNLQPEDIATYYCQQYDNLPLTFGGGTKVEIK
B10: B1118 (protein)
chain 1: EVQLVQSGAEVKKPGESLKISCKASGYSFTTYWIGWVRQMPGKGLEWMGIIYPGDSDARYSPSFQGQVTFSVDKSITTASLQWSSLKASDTAMYYCARSRSGDYFDYWGQGTLVTVS
chain 2: AIQLTQSPSSLSASVGDRVTITCRASQGISNGLAWYQQKPGNAPKLLIYDASNLESGVPSRFSGSGSVTDFTLTISSLQPEDFATYYCQHFKSYPFTFGPGTKVDIK
B11: B1112 (protein)
chain 1: QVQLQESGPGLVKPSETLSLTCSVSGGSMNNYYWSWIRQPPGKGLEWIGYIEYSGSTNYNPSLKSRVTISVDTAKNQFSLKLRSVTAADTAVYYCARVATFSITFGGVITDYYNYYMDVWGKGTAVTVSS
chain 2: EIVLTQSPGTLSLSPGESATLSCRARHSISSNYLAWYQQKPGQAPRLLIYGVSSRATGIPDRFSGSGSGTDFTLTISRLEPEDFAVYYCQQYAGTPLTFGGGTKVEIK
B12: B1071 (protein)
chain 1: QVQLVQSGAEVKKPGSSVKVSCKASGGTFSRYAIHWVRQAPGEGLEWVGGIIPMFGAADYAQKFQGRVTITADKSTSTAYMELSGLKSEDTAIYYCARGQIQWELLSFAVGVHFDYWGQGTLVTVSS
chain 2: DIVMTQSPESLAVSLGERATIKCKSSQSVLYSSNNKNYLAWYQQKPGQPPKLLIYWASYRESGVPDRFSGSGSATDFTLTISSLQAEDVAVYYCQQSYPVPPYTFGQGTKLEIK
B13: B1074 (protein)
chain 1: QVQLVQSGAEVKKPGSSVKVSCKASGGTLSNYAISWVRQAPGQGLEWMGGIIPIFGTTNYAQKFQGRVTITADESTSTANMELDSLRSEDTALYFCATYSSGWYSMGDFYYYYMDVWGKGTTVTVSS
chain 2: QSALTQPASVSGSPGQSITISCSGTSSDVGGFNYVSWFQQHPGKAPKLMICDVSFRPSGVSDRFSGSKSGNTASLTISGLQAEDEADYYCSSFTRTNTYVFGTGTKVT
B14: B1119 (protein)
chain 1: EVQLVESGGGLVQPGGSLRLSCAASGFTFSNDDMHWVRQASGKGLKWVSAIGTAGDRYYADSVKGRFTISRENAKNSFYLQMNDLRAEDTAVYYCARGVHERIDYYYYYYMDVWGKGATVIVS
chain 2: DIQMTQSPSSLSASVGDRVTITCRASQSISRYLNWYQQKPGKAPKLLIHAASSLQSGVPSRFSGSGSGTDFTLTISSLQPEDFATYYCQQSYSSPPWTFGPGTKVEIK

The target in the first test is SARS-CoV-2 Wuhan-Hu-1 spike pseudovirus. Put plainly: pseudovirus neutralization IC50; higher = weaker neutralization. Here is the method:
(§1)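 Single-round luciferase reporter pseudovirus mixed with antibody dilutions and put on 293T-ACE2 cells for 48 h; signal relative to no-antibody wells, four-parameter fit.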
On to B1, for which the “pseudovirus neutralization IC50” value is more than 1 µg/mL.

B2: the “pseudovirus neutralization IC50” value was found to be 0.832 µg/mL.

As for B3, the “pseudovirus neutralization IC50” value amounted to 0.0177 µg/mL.

B4: the “pseudovirus neutralization IC50” value was determined as 0.851 µg/mL.

Turning to B5, the “pseudovirus neutralization IC50” value was more than 1 µg/mL.

Take B6: the “pseudovirus neutralization IC50” value was found to be 0.008 µg/mL.

Consider B7, for which the “pseudovirus neutralization IC50” value was determined as 0.0142 µg/mL.

On to B8, for which the “pseudovirus neutralization IC50” value came to 0.00816 µg/mL.

With B9, the “pseudovirus neutralization IC50” value is 0.0455 µg/mL.

Turning to B10, the “pseudovirus neutralization IC50” value is more than 1 µg/mL.

Consider B11, for which the “pseudovirus neutralization IC50” value was determined as 0.146 µg/mL.

B12: the “pseudovirus neutralization IC50” value amounted to 0.00262 µg/mL.

In the case of B13, the “pseudovirus neutralization IC50” value was more than 1 µg/mL.

Turning to B14, the “pseudovirus neutralization IC50” value is more than 1 µg/mL.

The target is the same in another test. Description: pseudovirus neutralization IC90; higher = weaker neutralization. Here is the method: as §1
With B1, the “pseudovirus neutralization IC90” value was more than 1 µg/mL.

With B2, the “pseudovirus neutralization IC90” value is more than 1 µg/mL.

As for B3, the “pseudovirus neutralization IC90” value is 0.265 µg/mL.

Turning to B4, the “pseudovirus neutralization IC90” value was more than 1 µg/mL.

For B5, the “pseudovirus neutralization IC90” value was more than 1 µg/mL.

With B6, the “pseudovirus neutralization IC90” value stood at 0.103 µg/mL.

In the case of B7, the “pseudovirus neutralization IC90” value was found to be 0.111 µg/mL.

For the molecule B8, the “pseudovirus neutralization IC90” value stood at 0.0282 µg/mL.

B9: the “pseudovirus neutralization IC90” value worked out at 0.464 µg/mL.

Take B10: the “pseudovirus neutralization IC90” value is more than 1 µg/mL.

In the case of B11, the “pseudovirus neutralization IC90” value was more than 1 µg/mL.

In the case of B12, the “pseudovirus neutralization IC90” value came out at 0.0275 µg/mL.

For B13, the “pseudovirus neutralization IC90” value was more than 1 µg/mL.

For B14, the “pseudovirus neutralization IC90” value was more than 1 µg/mL.

In another test the target is SARS-CoV-2 Delta (B.1.617.2) spike RBD. Description: ELISA binding EC50; higher = weaker binding; ELISA of recombinant human antibody on coated antigen, from 10 µg/ml in fourfold dilutions; four-parameter fit.
With B1, the “ELISA binding EC50” value was found to be 0.0499 µg/mL.

Take B2: the “ELISA binding EC50” value was more than 1 µg/mL.

Regarding B3, the “ELISA binding EC50” value is 0.00546 µg/mL.

As to B4, the “ELISA binding EC50” value was 0.0145 µg/mL.

Turning to B5, the “ELISA binding EC50” value is 0.0158 µg/mL.

In the case of B6, the “ELISA binding EC50” value was more than 1 µg/mL.

As for B7, the “ELISA binding EC50” value came out at 0.00678 µg/mL.

As for B8, the “ELISA binding EC50” value was found to be 0.00449 µg/mL.

For the molecule B9, the “ELISA binding EC50” value is 0.506 µg/mL.

B10: the “ELISA binding EC50” value turned out to be 0.0219 µg/mL.

Consider B11, for which the “ELISA binding EC50” value was 0.0294 µg/mL.

For B12, the “ELISA binding EC50” value was more than 1 µg/mL.

Take B13: the “ELISA binding EC50” value is 0.017 µg/mL.

As to B14, the “ELISA binding EC50” value is 0.0637 µg/mL.

A further test has as its target SARS-CoV-2 Omicron BA.1 spike protein. The test is described as above.
Consider B1, for which the “ELISA binding EC50” value was determined as 0.00189 µg/mL.

For B2, the “ELISA binding EC50” value was more than 1 µg/mL.

As for B3, the “ELISA binding EC50” value was found to be 0.00814 µg/mL.

For the molecule B4, the “ELISA binding EC50” value came to 0.041 µg/mL.

B5: the “ELISA binding EC50” value was found to be 0.011 µg/mL.

For the molecule B6, the “ELISA binding EC50” value stood at 0.00593 µg/mL.

In the case of B7, the “ELISA binding EC50” value is more than 1 µg/mL.

Turning to B8, the “ELISA binding EC50” value was more than 1 µg/mL.

Regarding B9, the “ELISA binding EC50” value amounted to 0.00895 µg/mL.

As for B10, the “ELISA binding EC50” value stood at 0.0081 µg/mL.

Take B11: the “ELISA binding EC50” value amounted to 0.0272 µg/mL.

As to B12, the “ELISA binding EC50” value was found to be 0.00415 µg/mL.

In the case of B13, the “ELISA binding EC50” value was determined as 0.00569 µg/mL.

With B14, the “ELISA binding EC50” value worked out at 0.114 µg/mL.

The target of another test is SARS-CoV-2 Wuhan-Hu-1 spike receptor-binding domain. The description is as above.
As for B1, the “ELISA binding EC50” value was 0.00136 µg/mL.

With B2, the “ELISA binding EC50” value was 0.00388 µg/mL.

In the case of B3, the “ELISA binding EC50” value is 0.00246 µg/mL.

B4: the “ELISA binding EC50” value amounted to 0.00325 µg/mL.

On to B5, for which the “ELISA binding EC50” value worked out at 0.00379 µg/mL.

Consider B6, for which the “ELISA binding EC50” value came to 0.00245 µg/mL.

Consider B7, for which the “ELISA binding EC50” value amounted to 0.00363 µg/mL.

Take B8: the “ELISA binding EC50” value stood at 0.0047 µg/mL.

B9: the “ELISA binding EC50” value amounted to 0.00407 µg/mL.

For the molecule B10, the “ELISA binding EC50” value worked out at 0.00368 µg/mL.

Consider B11, for which the “ELISA binding EC50” value was 0.00241 µg/mL.

In the case of B12, the “ELISA binding EC50” value came to 0.00326 µg/mL.

With B13, the “ELISA binding EC50” value was 0.00443 µg/mL.

Turning to B14, the “ELISA binding EC50” value was 0.00301 µg/mL.

The values are drawn from the supplement of paper PMC9513381.
